Screen size: about 270,000 compounds; about 620 (0.23%) were called active. Inconclusive means that the source gave no clear call. Such entries were picked first, then a sample of the others. Calls come from the whole dose curve; as a rule, active = well fitted inhibition curve with a large enough effect in the polarisation, with a control signal flat (not every such curve was filed as active); inconclusive = small, poorly fitted or top-dose-only effect, or effect the other way, or a change in a side signal; inactive = no such curve, though single readings can be large or run the other way; the % refers to the polarisation. Where the call is inconclusive, the potency comes from a doubtful curve fit. “Side channel” marks fits to a control or component signal instead of the main read-out.
The compounds below were run against Menin (Homo sapiens) (UniProt O00255) (assay: qHTS Assay for Inhibitors Targeting the Menin-MLL Interaction in MLL Related Leukemias: Competition With Texas Red Labeled MLL-derived Mutant Peptide). Conditions: fluorescence polarization; FP activity change, negative = inhibition: at 61.6 µM (top of the series).
Potency is the fitted concentration of half-maximal effect; tags give direction and shape of the fitted curve or compound fluorescence and quenching.
Throughout, for FP activity change, negative = inhibition: % of control where 0% means no effect.

Chain of UniProt O00255 (O00255 whole entry, looked up): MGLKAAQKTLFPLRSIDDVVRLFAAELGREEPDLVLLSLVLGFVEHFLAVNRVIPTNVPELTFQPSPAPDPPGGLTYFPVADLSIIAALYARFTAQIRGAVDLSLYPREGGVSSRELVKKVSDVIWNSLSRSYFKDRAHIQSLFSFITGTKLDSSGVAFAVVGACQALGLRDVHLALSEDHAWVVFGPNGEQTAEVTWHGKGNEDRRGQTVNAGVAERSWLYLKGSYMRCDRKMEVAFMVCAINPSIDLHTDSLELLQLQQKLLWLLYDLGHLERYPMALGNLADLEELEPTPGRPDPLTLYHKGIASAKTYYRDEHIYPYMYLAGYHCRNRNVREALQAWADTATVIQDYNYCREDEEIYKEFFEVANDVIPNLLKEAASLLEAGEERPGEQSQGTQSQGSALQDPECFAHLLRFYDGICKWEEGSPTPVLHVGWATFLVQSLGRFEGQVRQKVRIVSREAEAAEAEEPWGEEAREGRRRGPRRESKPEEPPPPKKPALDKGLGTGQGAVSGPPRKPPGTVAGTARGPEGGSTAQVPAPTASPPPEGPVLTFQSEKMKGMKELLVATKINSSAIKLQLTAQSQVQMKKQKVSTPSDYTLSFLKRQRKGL

Compound	Potency	FP activity change, negative = inhibition
CCC(CC)N1CCN(Cc2nc3ccc([N+](=O)[O-])cc3c(=O)n2-c2ccccc2F)CC1	inconclusive: 8.91 µM [inhibitor, partial curve]	
COc1ccc(C(=O)NC(=S)Nc2ccc(N3CCOCC3)cc2)cc1Cl	inconclusive: 14.1 µM [quencher, side channel, partial curve]	
Cc1ccc(C2CC(c3cccs3)=NN2C(=O)CCl)cc1 (centres undefined)	inconclusive: 12.6 µM [inhibitor, partial curve]	
CCOc1ccc(C(=O)NC(=S)Nc2ccc(N3CCCCC3)cc2)cc1[N+](=O)[O-]	inconclusive: 25.1 µM [quencher, side channel, single point]	
CC1=CC2=NC(=O)/C(=C\c3cccn3CCOc3ccc(C)c(C)c3)C(=N)N2O1	inconclusive: 11.2 µM [quencher, side channel, partial curve]	
COc1cccc(Nc2ncc3nc(-c4cccs4)c(=O)n(C[C@H]4CCCO4)c3n2)c1	inconclusive: 2.82 µM [quencher, side channel, full curve, poor fit]	
CC1C=Cc2ccccc2N1C(=O)c1ccccc1 (centres undefined)	inconclusive: 12.6 µM [inhibitor, partial curve]	
O=C(/C=C/c1ccccc1)NC(=S)Nc1ccc2c3c(cccc13)CC2	inconclusive: 25.1 µM [inhibitor, single point]	
Cc1cc(-c2ccc(Cl)cc2)n2nc(N)nc2n1	inactive	
COc1ccc(C(=O)Nc2ccc(C(=O)NCCc3ccccc3)cc2)cc1	inconclusive: 14.1 µM [inhibitor, partial curve]	
COc1ccc(OC)c(C(c2nnnn2C2CCCC2)N2CCN(c3ccc(F)cc3)CC2)c1 (centres undefined)	inactive	
O=C(N/N=C/c1cc(Cl)cc([N+](=O)[O-])c1O)C(O)(c1ccccc1)c1ccccc1	inconclusive: 31.6 µM [quencher, side channel, partial curve]	
COc1ccc(C2OC34CCCCC3C(C#N)(C#N)C2(C#N)C(=N)O4)cc1 (centres undefined)	inconclusive: 25.1 µM [inhibitor, single point]	
CC(NCCc1ccc(S(N)(=O)=O)cc1)C(=O)NCCc1ccc(F)cc1 (centres undefined)	inconclusive: 39.8 µM [inhibitor, single point]	
NC(=O)OC[C@@H]1[C@H](NC(=O)/C(=N/OCC(=O)O)c2csc(N)n2)C(=O)N1S(=O)(=O)O	inactive	
O=c1ccsn1Cc1ccccc1	inactive	
Cc1c(C(=O)c2ccc(F)cc2F)c2ccccn2c1CCC#N	inconclusive: 8.91 µM [quencher, side channel, full curve]	
CCC(=O)NCCc1nc2cc(NC(=O)c3ccc(F)cc3)ccc2n1C	inconclusive: 44.7 µM [inhibitor, partial curve]	
O=C(O)c1ccccc1C(=O)c1cccc2ccccc12	inactive	
COc1ccccc1Nc1ncc(-c2cccs2)s1	inconclusive: 17.8 µM [quencher, side channel, partial curve]	

Compound	Potency	FP activity change, negative = inhibition
O=C(CC1(O)C(=O)N(Cc2cccc3ccccc23)c2ccccc21)c1cccnc1 (centres undefined)	inconclusive: 10 µM [fluorescent, side channel, partial curve]	
N#Cc1c(NC(=O)CCCl)sc2c1CCCCC2	inconclusive: 35.5 µM [fluorescent, side channel, single point]	
Cc1cc(OC(F)F)ccc1NC(=O)Nc1ccc([N+](=O)[O-])cc1	inconclusive: 12.6 µM [quencher, side channel, partial curve]	
O=C(Nc1ccc(F)cc1F)c1cc(-c2ccco2)nc2ccccc12	inconclusive: 39.8 µM [inhibitor, single point]	
CN(C)CCCN(C(=O)c1ccc(S(=O)(=O)N2CCCc3ccccc32)cc1)c1nc2ccc(F)cc2s1	inconclusive: 6.31 µM [inhibitor, partial curve]	
CCOC(=O)C1(CCCc2ccccc2)CCN(C(=O)c2cncs2)CC1	inconclusive: 7.08 µM [inhibitor, full curve, poor fit]	
O=c1oc2ccccc2cc1-c1csc(NN=C2CCCCC2)n1	inconclusive: 22.4 µM [quencher, side channel, partial curve]	
COc1ccc(CCNC(=O)C(CCC(N)=O)NS(=O)(=O)c2ccc(Cl)cc2)cc1OC (centres undefined)	inconclusive: 22.4 µM [inhibitor, partial curve, poor fit]	
CCC1CN(C(=O)NCc2ccccc2)c2cc(C)ccc2O1 (centres undefined)	inconclusive: 17.8 µM [fluorescent, side channel, partial curve]	
COc1ccc(CNC2CCN(Cc3ccccc3)CC2)cc1	inconclusive: 44.7 µM [inhibitor, single point]	
CCNC(=O)/C(C#N)=C/c1c(N(Cc2ccccc2)Cc2ccccc2)nc2ccccn2c1=O	inconclusive: 15.8 µM [fluorescent, side channel, partial curve]	
O=C(COC(=O)CCN1C(=O)/C(=C\C=C\c2ccccc2)SC1=S)Nc1cc(F)ccc1F	inconclusive: 10 µM [quencher, side channel, partial curve]	
NS(=O)(=O)c1ccc(CNC(=O)CCCSc2ccccc2)cc1	inactive	
O=C(Nc1ccccc1)C1(c2ccccc2)CC1(Cl)Cl (centres undefined)	inconclusive: 15.8 µM [quencher, side channel, partial curve]	
Cc1ccc(-c2ccc(=O)n(CC(=O)NCCC(C)C)n2)cc1	inconclusive: 31.6 µM [inhibitor, partial curve]	
CCc1ccc([C@@H]2C[C@H]3CN(Cc4ccccc4OC)C(=O)[C@]34CCCN24)cc1	inconclusive: 11.2 µM [inhibitor, partial curve]	
CC(=O)Nc1nc(C)c(-c2csc(Nc3ccc(O)cc3)n2)s1	inconclusive: 15.8 µM [quencher, side channel, partial curve]	
COc1cc(/C=C(/C#N)C(=O)Nc2ccccc2)ccc1OCc1ccc(C(=O)O)cc1	inactive	
CCC(=O)NC(=S)Nc1ccc(NC(=O)c2ccc(C)c([N+](=O)[O-])c2)cc1	inconclusive: 22.4 µM [quencher, side channel, partial curve]	
COc1ccc(S(=O)(=O)Nc2cc(Sc3ncn[nH]3)c(O)c3ccccc23)cc1	inconclusive: 12.6 µM [quencher, side channel, partial curve]	

Compound	Potency	FP activity change, negative = inhibition
CCCCCC/C(C)=C1/SC(=S)NC1=O	inactive	
Cc1ccc(C(=O)N/N=C/c2ccc(-c3ccccc3[N+](=O)[O-])o2)cn1	inconclusive: 28.2 µM [quencher, side channel, single point]	
CC1/C=C/C=C/C=C/C=C/C=C/C=C/C=C/C(OC2OC(C)C(O)C(N)C2O)CC2O[C@@](O)(CC(O)CC(O)C(O)CCC(O)CC(O)CC(=O)OC(C)[C@H](C)C1O)CC(O)C2C(=O)O (some centres undefined)	inconclusive: 12.6 µM [fluorescent, side channel, partial curve]	
NC(=NCc1ccc2c(c1)OCO2)NC(=O)c1ccccc1	inactive	
CCc1nnc(NS(=O)(=O)c2ccc(NC(=O)c3ccc(Br)cc3)cc2)s1	inconclusive: 14.1 µM [quencher, side channel, partial curve]	
N=C1/C(=C\c2ccc(Br)o2)C(=O)N=C2SC(CC(=O)N3CCCCC3)=NN12	inconclusive: 31.6 µM [fluorescent, side channel, single point]	
O=C(Nc1nc(-c2cccc(Br)c2)cs1)Oc1ccccc1	inconclusive: 39.8 µM [inhibitor, single point]	
CCCCc1nc2c(c3c1C[C@H](C)OC3)CN(S(=O)(=O)c1ccc(NC(C)=O)cc1)CC2		inactive: -1.7% [at 11.7 µM]
COc1ccccc1C(=O)NCC1(c2ccccc2)CCCC1	inconclusive: 17.8 µM [fluorescent, side channel, partial curve]	
C#CCNc1ccc([N+](=O)[O-])cc1	inactive	
N#CC(C#N)=C1NC(N)=C(C#N)C(c2ccccc2)=C1C#N	inconclusive: 14.1 µM [quencher, side channel, single point]	
Cc1ccc(Cn2c(C)cc3c(c2=O)C(c2cccs2)C(C#N)=C(N)O3)cc1 (centres undefined)	inconclusive: 35.5 µM [fluorescent, side channel, single point]	
Cc1cc2c(cc1C)C(c1ccccc1OC(C)C)CC(=O)N2 (centres undefined)	inconclusive: 31.6 µM [fluorescent, side channel, partial curve]	
Cc1oc(-c2ccc(-c3ccccc3)cc2)nc1CN(C)C1CCOC1 (centres undefined)	inconclusive: 3.98 µM [fluorescent, side channel, full curve, poor fit]	
O=C(Nc1ccc([N+](=O)[O-])cc1)Nc1ccc2[nH]c(=O)[nH]c2c1	inconclusive: 28.2 µM [quencher, side channel, partial curve]	
CNC(=O)c1ccc(-c2ccccc2)s1	inactive	
Nc1ncc2c(n1)-c1cc(Cl)ccc1SC2	inconclusive: 25.1 µM [inhibitor, single point]	
COc1ccc(Cl)cc1NC(=O)C(C)OC(=O)c1ccc(NS(=O)(=O)c2ccc3[nH]c(=O)[nH]c3c2)cc1 (centres undefined)	inconclusive: 20 µM [quencher, side channel, partial curve]	
Cc1ccc(S(=O)(=O)Nc2ccc(S(=O)(=O)Nc3nccs3)cc2)c([N+](=O)[O-])c1	inconclusive: 39.8 µM [quencher, single point]	

Reference: PubChem BioAssay AID1768 (National Center for Advancing Translational Sciences (NCATS), 2009)
